Experimental data taken from patent publication US20250019440A1 (Zymeworks, published 2025).

Key:
Human CD3 (recombinant) = Human CD3 (recombinant) (human); assay: SPR, CD3 amine-coupled, variant as analyte, 1:1 model
Human PD-L1 = molecular target: T1, Human PD-L1 (human, UniProt Q9NZQ7 fragment); assay: SPR, PD-L1 amine-coupled, variant as analyte, 1:1 model
T1 construct: Amine-coupled to a CM5 chip for SPR; also called recombinant human PD-L1

Cynomolgus monkey PD-L1 = molecular target: T2, Cynomolgus monkey PD-L1 (cynomolgus monkey, UniProt G7PSE7 19-239); assay: as above
Sequence of Cynomolgus monkey PD-L1 (G7PSE7 entry or part of it): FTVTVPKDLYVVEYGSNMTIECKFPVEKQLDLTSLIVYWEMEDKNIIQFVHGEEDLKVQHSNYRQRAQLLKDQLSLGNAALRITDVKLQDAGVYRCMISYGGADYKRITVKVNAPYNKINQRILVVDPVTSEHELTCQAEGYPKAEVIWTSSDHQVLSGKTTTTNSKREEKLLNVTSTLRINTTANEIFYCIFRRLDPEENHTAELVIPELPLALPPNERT
T2 construct: Amine-coupled to a CM5 chip for SPR; also called recombinant cynomolgus monkey PD-L1

Mouse PD-L1 = molecular target: T3, Mouse PD-L1 (mouse, UniProt Q9EP73 fragment, limits assumed); assay: as above
Sequence of Mouse PD-L1 (Q9EP73 19-238 limits assumed): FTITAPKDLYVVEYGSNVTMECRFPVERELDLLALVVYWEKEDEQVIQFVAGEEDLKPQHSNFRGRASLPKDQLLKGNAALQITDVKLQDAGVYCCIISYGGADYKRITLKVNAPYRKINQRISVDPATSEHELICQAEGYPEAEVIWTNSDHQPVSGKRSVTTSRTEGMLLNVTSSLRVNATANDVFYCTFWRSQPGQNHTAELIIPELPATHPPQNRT
T3 construct: Amine-coupled to a CM5 chip for SPR; also called recombinant mouse PD-L1

Sequence of Human PD-L1 (Q9NZQ7 19-239 limits assumed): as the sequence (G7PSE7 entry or part of it) above, with T33A, S34A, N62S, Q68R, R82Q, L173F, A185T, I192T, L215H counted along it
Sequence of Human CD3 (recombinant) (chain, as listed by the source): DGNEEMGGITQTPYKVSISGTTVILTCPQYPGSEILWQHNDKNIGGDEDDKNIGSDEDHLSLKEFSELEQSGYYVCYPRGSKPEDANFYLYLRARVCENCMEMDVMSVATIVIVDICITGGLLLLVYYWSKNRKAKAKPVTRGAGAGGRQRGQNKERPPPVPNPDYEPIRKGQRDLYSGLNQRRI

Row | Binder | Kd (Human CD3 (recombinant)) | Kd (Human PD-L1) | Kd (Cynomolgus monkey PD-L1) | Kd (Mouse PD-L1)
1 | v38422 (other) heavy 1: NPPTFSPALLVVTEGDNATFTCSFSNTSESFVLNWYRMSPSNQTDALAAFPEDRSQPGQDARFRVTQLPNGRDFHMSVVRARRNDSGTYLCGAASLAPKAQIKESLRAELRVTEGGGGSGEVQLVESGGGLVQPGGSLRLSCAASGVTFNYYGMSWIRQAPGKGLEWVASITSSGGRIYYPDSVKGRFTISRENTQKTLYLQMNSLRAEDTAVYYCTLDGRDGWVAYWGQGTLVTVSSASTKGPSVFPLAPSSKSTSGGTAALGCLVKDYFPEPVTVSWNSGALTSGVHTFPAVLQSSGLYSLSSVVTVPSSSLGTQTYICNVNHKPSNTKVDKK[human IgG1 Fc with changes not shown] light: NFMLTQPHSVSESPGKTVTISCKRNTGNIGSNYVNWYQQHEGSSPTTIIYRNDKRPDGVSDRFSGSIDRSSKSASLTISNLKTEDEADYFCQSYSSGFIFGGGTKLTVLGQPKAAPSVTLFPPSSEELQANKATLVCLISDFYPGAVTVAWKADSSPVKAGVETTTPSKQSNNKYAASSYLSLTPEQWKSHRSYSCQVTHEGSTVEKTVAPTECS heavy 2: QVQLVESGGGLVQPGGSLRLSCSVSGIDLSSNPMIWVRQAPGKGLQYIGIIDTDGSTYYADWAKGRFTISKDSTTVYLQINSPRAEDTAVYYCARRLHGSSNGYYDDLWGQGTLVTVSSGGGGSGGGGSGGGGSGGGGSDGQMTQSPSSVSASVGDRVTITCQASQSIYSYLSWYQQKPGQRPKLLIYKASTLASGVPSRFSGSGSGTDFTLTISSVQPEDFATYYCQQGYTVTNVDKNTFGGGTKVEIKAAEPKSSDKTHTCPPCPAPEAAGGPSVFLFPPKPKDTLMISRTPEVTCVVVSVSHEDPEVKFNWYVDGVEVHNAKTKPREEQYNSTYRVVSVLTVLHQDWLNGKEYKCKVSNKALPAPIEKTISKAKGQPREPQVYVLPPSRDELTKNQVSLLCLVKGFYPSDIAVEWESNGQPENNYLTWPPVLDSDGSFFLYSKLTVDKSRWQQGNVFSCSVMHEALHNHYTQKSLSLSPG | 4 nM | – | – | –
2 | v38522 (other) heavy 1: [about 120 residues not shown]AAAKEAAAKEVQLVESGGGLVQPGGSLRLSCAASGVTFNYYGMSWIRQAPGKGLEWVASITSSGGRIYYPDSVKGRFTISRENTQKTLYLQMNSLRAEDTAVYYCTLDGRDGWVAYWGQGTLVTVSSASTKGPSVFPLAPSSKSTSGGTAALGCLVKDYFPEPVTVSWNSGALTSGVHTFPAVLQSSGLYSLSSVVTVPSSSLGTQTYICNVNHKPSNTKVDKK[human IgG1 Fc with changes not shown] light: NFMLTQPHSVSESPGKTVTISCKRNTGNIGSNYVNWYQQHEGSSPTTIIYRNDKRPDGVSDRFSGSIDRSSKSASLTISNLKTEDEADYFCQSYSSGFIFGGGTKLTVLGQPKAAPSVTLFPPSSEELQANKATLVCLISDFYPGAVTVAWKADSSPVKAGVETTTPSKQSNNKYAASSYLSLTPEQWKSHRSYSCQVTHEGSTVEKTVAPTECS heavy 2: QVQLVESGGGLVQPGGSLRLSCSVSGIDLSSNPMIWVRQAPGKGLQYIGIIDTDGSTYYADWAKGRFTISKDSTTVYLQINSPRAEDTAVYYCARRLHGSSNGYYDDLWGQGTLVTVSSGGGGSGGGGSGGGGSGGGGSDGQMTQSPSSVSASVGDRVTITCQASQSIYSYLSWYQQKPGQRPKLLIYKASTLASGVPSRFSGSGSGTDFTLTISSVQPEDFATYYCQQGYTVTNVDKNTFGGGTKVEIKAAEPKSSDKTHTCPPCPAPEAAGGPSVFLFPPKPKDTLMISRTPEVTCVVVSVSHEDPEVKFNWYVDGVEVHNAKTKPREEQYNSTYRVVSVLTVLHQDWLNGKEYKCKVSNKALPAPIEKTISKAKGQPREPQVYVLPPSRDELTKNQVSLLCLVKGFYPSDIAVEWESNGQPENNYLTWPPVLDSDGSFFLYSKLTVDKSRWQQGNVFSCSVMHEALHNHYTQKSLSLSPG | – | 2.8 nM | 2.8 nM | 5.2 nM
3 | v38403 (other, CD3 x Her2 Fab x scFv Fc, wildtype (WT) PD-1 attached to CD3 HC) heavy 1: NPPTFSPALLVVTEGDNATFTCSFSNTSESFVLNWYRMSPSNQTDKLAAFPEDRSQPGQDARFRVTQLPNGRDFHMSVVRARRNDSGTYLCGAISLAPKAQIKESLRAELRVTEEAAAKEAAAKEVQLVESGGGLVQPGGSLRLSCAASGVTFNYYGMSWIRQAPGKGLEWVASITSSGGRIYYPDSVKGRFTISRENTQKTLYLQMNSLRAEDTAVYYCTLDGRDGWVAYWGQGTLVTVSSASTKGPSVFPLAPSSKSTSGGTAALGCLVKDYFPEPVTVSWNSGALTSGVHTFPAVLQSSGLYSLSSVVTVPSSSLGTQTYICNVNHKPSNTKVDKK[human IgG1 Fc with changes not shown] light: NFMLTQPHSVSESPGKTVTISCKRNTGNIGSNYVNWYQQHEGSSPTTIIYRNDKRPDGVSDRFSGSIDRSSKSASLTISNLKTEDEADYFCQSYSSGFIFGGGTKLTVLGQPKAAPSVTLFPPSSEELQANKATLVCLISDFYPGAVTVAWKADSSPVKAGVETTTPSKQSNNKYAASSYLSLTPEQWKSHRSYSCQVTHEGSTVEKTVAPTECS heavy 2: [about 100 residues not shown]GGSGGGSGGGSGGGSGGGSG[about 120 residues not shown][about 250 residues not shown] | – | – | > 1000 nM | > 1000 nM

Continued by falling Kd (Cynomolgus monkey PD-L1), values first:

Row | Kd (Human CD3 (recombinant)) | Kd (Human PD-L1) | Kd (Cynomolgus monkey PD-L1) | Kd (Mouse PD-L1) | Binder
4 | – | 110 nM | 330 nM | 300 nM | v38404 (other) heavy 1: NPPTFSPALLVVTEGDNATFTCSFSNTSESFVLNWYRMSPSNQTDKLAAFPEDRSQPGQDARFRVTQLPNGRDFHMSVVRARRNDSGTYLCGAISLAPKLQIKESLRAELRVTEEAAAKEAAAKEVQLVESGGGLVQPGGSLRLSCAASGVTFNYYGMSWIRQAPGKGLEWVASITSSGGRIYYPDSVKGRFTISRENTQKTLYLQMNSLRAEDTAVYYCTLDGRDGWVAYWGQGTLVTVSSASTKGPSVFPLAPSSKSTSGGTAALGCLVKDYFPEPVTVSWNSGALTSGVHTFPAVLQSSGLYSLSSVVTVPSSSLGTQTYICNVNHKPSNTKVDKK[human IgG1 Fc with changes not shown] light: NFMLTQPHSVSESPGKTVTISCKRNTGNIGSNYVNWYQQHEGSSPTTIIYRNDKRPDGVSDRFSGSIDRSSKSASLTISNLKTEDEADYFCQSYSSGFIFGGGTKLTVLGQPKAAPSVTLFPPSSEELQANKATLVCLISDFYPGAVTVAWKADSSPVKAGVETTTPSKQSNNKYAASSYLSLTPEQWKSHRSYSCQVTHEGSTVEKTVAPTECS heavy 2: [about 100 residues not shown]GGSGGGSGGGSGGGSGGGSG[about 120 residues not shown][about 250 residues not shown]
5 | – | 39 nM | 62 nM | 1.7 nM | v38405 (other) heavy 1: NPPTFSPALLVVTEGDNATFTCSFSNTSESFRLVWHRESPGYETDTLASFPEDRSTPLPDARFRVTQLPNGRDFHMSVVRARRNDSGTYVCGAIAFHPVIQIKESLRAELRVTEEAAAKEAAAKEVQLVESGGGLVQPGGSLRLSCAASGVTFNYYGMSWIRQAPGKGLEWVASITSSGGRIYYPDSVKGRFTISRENTQKTLYLQMNSLRAEDTAVYYCTLDGRDGWVAYWGQGTLVTVSSASTKGPSVFPLAPSSKSTSGGTAALGCLVKDYFPEPVTVSWNSGALTSGVHTFPAVLQSSGLYSLSSVVTVPSSSLGTQTYICNVNHKPSNTKVDKK[human IgG1 Fc with changes not shown] light: NFMLTQPHSVSESPGKTVTISCKRNTGNIGSNYVNWYQQHEGSSPTTIIYRNDKRPDGVSDRFSGSIDRSSKSASLTISNLKTEDEADYFCQSYSSGFIFGGGTKLTVLGQPKAAPSVTLFPPSSEELQANKATLVCLISDFYPGAVTVAWKADSSPVKAGVETTTPSKQSNNKYAASSYLSLTPEQWKSHRSYSCQVTHEGSTVEKTVAPTECS heavy 2: [about 100 residues not shown]GGSGGGSGGGSGGGSGGGSG[about 120 residues not shown][about 250 residues not shown]
6 | – | 1.3 nM | 1.2 nM | 9.4 nM | v38400 (other) heavy 1: [about 120 residues not shown]AAAKEAAAKEVQLVESGGGLVQPGGSLRLSCAASGVTFNYYGMSWIRQAPGKGLEWVASITSSGGRIYYPDSVKGRFTISRENTQKTLYLQMNSLRAEDTAVYYCTLDGRDGWVAYWGQGTLVTVSSASTKGPSVFPLAPSSKSTSGGTAALGCLVKDYFPEPVTVSWNSGALTSGVHTFPAVLQSSGLYSLSSVVTVPSSSLGTQTYICNVNHKPSNTKVDKK[human IgG1 Fc with changes not shown] light: NFMLTQPHSVSESPGKTVTISCKRNTGNIGSNYVNWYQQHEGSSPTTIIYRNDKRPDGVSDRFSGSIDRSSKSASLTISNLKTEDEADYFCQSYSSGFIFGGGTKLTVLGQPKAAPSVTLFPPSSEELQANKATLVCLISDFYPGAVTVAWKADSSPVKAGVETTTPSKQSNNKYAASSYLSLTPEQWKSHRSYSCQVTHEGSTVEKTVAPTECS heavy 2: [about 100 residues not shown]GGSGGGSGGGSGGGSGGGSG[about 120 residues not shown][about 250 residues not shown]
